Test results as given in ChEMBL document CHEMBL1201862, “PubChem BioAssay data set” (2004).

System: NCI-H322M
Assay: NCI tumour cell line growth inhibition, 48 h

CC(=O)[C@H]1CCC2[C@@H]3CC=C4C(O)C(OS(=O)(=O)O)CC[C@]4(C)C3CC[C@@]21C (stereo not given in full) was tested. Which GI50 did it give?
Its GI50 is inactive: > 100 µM.

How did the GI50 turn out when CCOC(=O)Nc1c(C#N)[n+]([O-])c2cc(Cl)c(Cl)cc2[n+]1[O-] was run?
Its GI50 is inactive: 22.7 µM.

With COC(=O)CCC1=C(CC(=O)OC)C(C)(OC)N/C1=N/C(=O)OCc1ccccc1 (stereo not given) as the molecule, how does the GI50 read?
Its GI50 is inactive: > 100 µM.

Clc1nc(-c2ccccc2)nc(Cl)c1Cl was tested. Which GI50 did it give?
Its GI50 is inactive: 14.1 µM.

COc1ccccc1NC(=S)NNC(=O)c1cc(-c2ccccc2)nc2ccccc12 was tested. Which GI50 did it give?
The GI50 was inactive: 8.55 µM.

For Cc1csc2nc(-c3ccncc3)cn12, which GI50 is on record?
The GI50 was inactive: > 100 µM.

Which GI50 does the source give for Cc1ccc(S(=O)(=O)Oc2ccc(OS(=O)(=O)c3ccc(C)cc3)c3c2C(=O)c2ccccc2C3=O)cc1 here?
Its GI50 is inactive: > 100 µM.

Which GI50 does the source give for CC(=O)Nc1ccc(NC(=O)c2c(Cl)c(Cl)c(Cl)c(Cl)c2-c2nc3ccccc3[nH]2)cc1 here?
Its GI50 is inactive: 39.1 µM.

Which GI50 does the source give for CN(CCCCN1CCCC1)CCCCN(C)C(=O)Cc1ccc(Cl)c(Cl)c1 here?
The GI50 was inactive: 16.1 µM.

For Brc1cc2c(cc1Br)CN(c1ccccc1)C2, which GI50 is on record?
The GI50 was inactive: > 100 µM.

Which GI50 does the source give for COc1cc(OCc2ccccc2)c2c(CCC(=O)O)cc(=O)oc2c1.COc1cc(OCc2ccccc2)cc2oc(=O)cc(CCC(=O)O)c12 here?
Its GI50 is inactive: 35 µM.

N#CC1([N+](=O)[O-])C=C1c1ccccc1 (stereo not given) was tested. Which GI50 did it give?
The GI50 was inactive: > 100 µM.

Which GI50 does the source give for COc1ccc(N2C(=O)/C(=C/c3ccc(N(CCC#N)CCC#N)cc3)N=C2c2ccccc2)c(OC)c1 here?
Its GI50 is inactive: > 100 µM.

O=[N+]([O-])c1ccc(C[P+](c2ccccc2)(c2ccccc2)c2ccccc2)cc1 was tested. Which GI50 did it give?
The GI50 was inactive: > 100 µM.

CC1(C)CN=C(c2ccc3ccccc3c2O)N1 was tested. Which GI50 did it give?
Its GI50 is inactive: > 100 µM.

Which GI50 does the source give for COc1ccc(/C=C2/NC(=S)N=C2Cl)cc1 here?
The GI50 was inactive: > 100 µM.

For CCc1cc2c(O)c(c1)Cc1cc(CC)cc(c1O)Cc1cc(CC)cc(c1O)Cc1cc(CC)cc(c1O)Cc1cc(CC)cc(c1O)Cc1cc(CC)cc(c1O)Cc1cc(CC)cc(c1O)C2, which GI50 is on record?
The GI50 was inactive: > 100 µM.

With NC(=O)CSc1c2cc(O)ccc2nc2ccc(O)cc12 as the molecule, how does the GI50 read?
The GI50 was inactive: > 10 µM.

With COc1cccc(C2=NC(C(C)C)CO2)c1OC (stereo not given) as the molecule, how does the GI50 read?
The GI50 was inactive: > 100 µM.

For CC(=O)Nc1ccc2c(c1)C(=O)c1cccc(F)c1-2, which GI50 is on record?
The GI50 was inactive: 42.5 µM.

With O=C(Nc1ccc(Cl)cc1)[C-](C(=O)c1ccc(Br)cc1)[n+]1cccc(-c2ccc(Cl)cc2)n1 as the molecule, how does the GI50 read?
The GI50 was inactive: 3.28 µM.

For Cc1nc(C)c(C(=O)Nc2cccc3c2C(=O)NC3=O)cc1C(=O)Nc1cccc2c1C(=O)NC2=O, which GI50 is on record?
Its GI50 is inactive: > 100 µM.

For CCOC(=O)CNC1=Nc2ccccc2C(=O)N2CSCC12 (stereo not given), which GI50 is on record?
Its GI50 is inactive: > 100 µM.

Which GI50 does the source give for CCOC(=O)CSc1nnc(CSc2nc(-c3ccccc3)c(-c3ccccc3)[nH]2)n1-c1ccccc1 here?
The GI50 was inactive: > 88.7 µM.

Which GI50 does the source give for COc1cccc(OC)c1/C=N\N1C(=O)c2ccccc2C1=O here?
The GI50 was inactive: > 100 µM.

With CCC(C)C(=O)OCC(=O)c1ccc(-c2ccccc2)cc1 (stereo not given) as the molecule, how does the GI50 read?
Its GI50 is inactive: 48.1 µM.

OCC1OC(c2cccc3cc(O)c(O)cc23)CC1O (stereo not given) was tested. Which GI50 did it give?
Its GI50 is inactive: > 100 µM.

With O=Cc1ccccc1COC(=O)c1cc(C(=O)OCc2ccccc2C=O)c(C(=O)OCc2ccccc2C=O)cc1C(=O)OCc1ccccc1C=O as the molecule, how does the GI50 read?
The GI50 was inactive: > 100 µM.

Which GI50 does the source give for CC1(C)C(=O)C(=Cc2ccco2)C1=O here?
The GI50 was inactive: > 100 µM.

How did the GI50 turn out when CC(O)CN1c2ccccc2Sc2ccc(Cl)cc21 (stereo not given) was run?
The GI50 was inactive: > 10 µM.

Which GI50 does the source give for CC(C)C(=O)N[C@@H](C)C(=O)N(Cc1ccc2ccccc2c1)N=O here?
Its GI50 is inactive: > 100 µM.

With COC(=O)C(=O)C(C(=O)C(=O)Nc1cccc([N+](=O)[O-])c1)c1nc2ccc(Cl)cc2nc1O (stereo not given) as the molecule, how does the GI50 read?
The GI50 was inactive: > 100 µM.

With COc1ccccc1C1(C)SCc2nc3ccccc3n21 (stereo not given) as the molecule, how does the GI50 read?
The GI50 was inactive: > 10 µM.

For O=c1[nH]/c(=C/c2ccc(OCc3ccccc3)cn2)c(=O)[nH]/c1=C/c1ccc(O)cc1, which GI50 is on record?
Its GI50 is active: 1.07 µM.

COC(=O)C12CCC(C(F)(F)C1=O)C2(C)C (stereo not given) was tested. Which GI50 did it give?
The GI50 was inactive: > 100 µM.

With C=CCN1C(=O)CS/C1=N\NC(=O)CSc1nc2ccccc2c(=O)n1CC as the molecule, how does the GI50 read?
The GI50 was inactive: > 100 µM.

How did the GI50 turn out when Cc1cc(C)nc(NS(=O)(=O)c2ccc(NC(=O)c3cc([N+](=O)[O-])cc([N+](=O)[O-])c3)cc2)n1 was run?
Its GI50 is inactive: 81.3 µM.

Which GI50 does the source give for O=C1C2=C(c3ccccc31)C(c1ccc(F)cc1)N1C(=O)CCSC1=N2 (stereo not given) here?
The GI50 was inactive: > 100 µM.

With O=C(O)C1=C/C(=C(/c2ccccc2)c2cc(C(=O)O)c(O)c3ccccc23)c2ccccc2C1=O as the molecule, how does the GI50 read?
Its GI50 is inactive: > 100 µM.

How did the GI50 turn out when C[N+]12c3ccccc3O[B-]1(c1ccccc1)Oc1ccccc12 (stereo not given) was run?
Its GI50 is inactive: 45.1 µM.

Which GI50 does the source give for CC(=O)O[C@H]1C(=O)[C@@]2(C)C(C(OC(=O)c3ccccc3)[C@]3(O)C[C@H](OC(=O)C(OC(=O)CCCC(=O)NCCCN(C)C)C(NC(=O)c4ccccc4)c4ccccc4)C(C)=C1C3(C)C)C1(OC(C)=O)COC1C[C@@H]2O (stereo not given in full) here?
The GI50 was active: 0.0115 µM.

How did the GI50 turn out when COc1cc(O)c2c(c1)C(=O)C1=C(C2=O)C(O)C[C@@](C)(O)C1 (stereo not given in full) was run?
The GI50 was inactive: 2.08 µM.

COc1cc2cc(C(=O)N3CC(CCl)c4c3cc(N)c3ccccc43)[nH]c2c(OC)c1OC (stereo not given) was tested. Which GI50 did it give?
The GI50 was active: < 0.01 µM.

COc1cc2c(cc1OC)C(OC)N(C)c1c-2ccc2cc3c(cc12)OCO3 (stereo not given) was tested. Which GI50 did it give?
The GI50 was inactive: 2.69 µM.

Which GI50 does the source give for O=C1Nc2ccc(Br)cc2/C1=N/NC(=S)Nc1ccc(F)cc1 here?
Its GI50 is inactive: 10.8 µM.

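1) Cells in 96-well plates. 2) Compound, 48 h, 5 concentrations. 3) Linear interpolation between surrounding doses. 4) Unreached endpoint = highest concentration. GI50 = concentration required for 50% inhibition of growth.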 The source made the active and inactive calls. No stated cut-off is given here; in the data, active = GI50 up to about 1.1 µM and inactive = higher.
